The campaign covered roughly 310,000 compounds. About 14,000 (4.5%) showed an effect of 50% or more. The effect is printed as a negative number. This is one part of the list.
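Note: peak tail current of the secondary pulse compared with the same well before compound.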

The target in the assay is human ether-à-go-go-related gene (hERG) potassium channel (human, UniProt Q12809). Put plainly: primary screen, population patch clamp on CHO cells stably expressing hERG.
Chain of human ether-à-go-go-related gene (hERG) potassium channel (Q12809 whole entry, looked up): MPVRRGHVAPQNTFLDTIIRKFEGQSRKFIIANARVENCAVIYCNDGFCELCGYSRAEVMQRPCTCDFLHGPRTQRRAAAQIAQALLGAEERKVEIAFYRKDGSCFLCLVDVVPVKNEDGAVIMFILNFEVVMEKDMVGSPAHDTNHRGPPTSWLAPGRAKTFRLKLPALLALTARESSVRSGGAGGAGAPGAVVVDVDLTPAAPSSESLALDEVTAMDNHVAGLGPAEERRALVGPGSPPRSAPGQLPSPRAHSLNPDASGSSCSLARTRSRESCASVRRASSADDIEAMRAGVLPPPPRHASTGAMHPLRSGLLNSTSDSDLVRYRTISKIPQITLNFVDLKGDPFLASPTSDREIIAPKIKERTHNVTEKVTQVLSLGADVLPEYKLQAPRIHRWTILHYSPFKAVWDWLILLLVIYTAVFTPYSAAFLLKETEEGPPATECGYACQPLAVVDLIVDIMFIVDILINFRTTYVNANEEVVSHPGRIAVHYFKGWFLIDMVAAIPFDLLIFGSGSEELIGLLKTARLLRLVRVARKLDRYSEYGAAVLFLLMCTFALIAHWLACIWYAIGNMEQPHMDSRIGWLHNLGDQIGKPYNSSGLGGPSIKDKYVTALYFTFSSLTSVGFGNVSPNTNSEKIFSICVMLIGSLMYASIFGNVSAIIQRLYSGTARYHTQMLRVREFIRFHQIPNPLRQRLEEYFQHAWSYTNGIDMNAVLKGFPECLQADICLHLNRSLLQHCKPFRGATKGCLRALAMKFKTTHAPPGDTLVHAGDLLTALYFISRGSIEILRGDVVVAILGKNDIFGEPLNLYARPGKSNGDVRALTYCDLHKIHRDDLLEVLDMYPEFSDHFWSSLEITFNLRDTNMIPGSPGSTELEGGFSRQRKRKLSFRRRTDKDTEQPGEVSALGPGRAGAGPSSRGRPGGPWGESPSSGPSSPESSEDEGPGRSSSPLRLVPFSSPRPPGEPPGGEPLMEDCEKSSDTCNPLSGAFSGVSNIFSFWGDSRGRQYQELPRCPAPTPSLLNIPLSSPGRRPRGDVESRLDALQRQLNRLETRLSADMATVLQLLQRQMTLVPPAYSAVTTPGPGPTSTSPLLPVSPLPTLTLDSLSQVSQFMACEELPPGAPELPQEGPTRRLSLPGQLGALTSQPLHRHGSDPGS
`COc1ccccc1NC(=O)Cn1cc(C(=O)c2ccco2)c2ccccc21`: the “hERG current change (%, negative = inhibition) at 10uM” value is recorded as -35.8%. Next, `CCOC(=O)CC1C(=O)NCCN1S(=O)(=O)c1cccc(C(F)(F)F)c1` (stereo not shown): 8.42%. Next, `Cc1ccc(C(=O)CSc2nnc(COc3cc(C)cc(C)c3)o2)cc1`: 12.2%; `O=C(c1cc(COc2c(F)cccc2F)on1)N(Cc1ccccc1)CC1CC1`: 3.51%; `N#Cc1c([N+](=O)[O-])cc([N+](=O)[O-])cc1S(=O)(=O)Cc1ccccc1`: 17.2%. Turning to `COCCN(C(=O)COC(=O)c1ccccc1NCc1ccco1)c1c(N)n(Cc2ccccc2)c(=O)[nH]c1=O`, the “hERG current change (%, negative = inhibition) at 10uM” value is 0.733%. For `Cc1ccc(NS(=O)(=O)c2ccc(NC(=O)N3CCCCC3)cc2)cc1`, the “hERG current change (%, negative = inhibition) at 10uM” value stood at 8.78%. `COc1ccc(Cn2nnnc2C(c2ccc(F)cc2)N2CCN(C3CCCC3)CC2)cc1` (stereo not shown): the “hERG current change (%, negative = inhibition) at 10uM” value is reported as -52.6%.

Regarding `Cc1ccc(NC(=S)N/N=C2\CC(C)(C)Oc3ccc(O)cc32)cc1`, the “hERG current change (%, negative = inhibition) at 10uM” value stood at 12%. `O=C(C=C=Nc1ccccc1)C(=O)N=C=Cc1ccccc1`: the “hERG current change (%, negative = inhibition) at 10uM” value stood at 3.6%. The same measure for `Cl.O=C(CN1CCOCC1)NCc1ccc(F)cc1`: 21.6%. For the compound `CC(C)(C)c1ccc(/C=C(\C#N)C(=O)Nc2ccccn2)cc1`, the “hERG current change (%, negative = inhibition) at 10uM” value is given as 23.7%. The same measure for `CCCCN(C(=O)c1ccc(C)o1)c1c(N)n(CC(C)C)c(=O)[nH]c1=O`: 13.9%; for `O=C(COc1ccccc1Cl)N1CCN(c2ncccn2)CC1`: -1.56%; for `O=C(C1CCCN1S(=O)(=O)c1ccc(Br)cc1)N1CCOCC1` (stereo not shown): -5.29%. The same measure for `O=C(CSc1nnc(CNc2ccc(F)cc2)n1-c1ccccc1)N1CCOCC1`: -11.4%.

Regarding `CCOC(=O)c1cnc(SCCc2ccccc2)nc1N`, the “hERG current change (%, negative = inhibition) at 10uM” value is recorded as 4.94%. With `CC(C)[C@H](NC(=O)c1ccc(Cl)c([N+](=O)[O-])c1)C(=O)NCc1ccc(F)cc1`, the “hERG current change (%, negative = inhibition) at 10uM” value was 3.98%. Take `Cc1ccc(CSCC(=O)N(C)CC(=O)Nc2cccc(F)c2)cc1`: the “hERG current change (%, negative = inhibition) at 10uM” value is recorded as -17.5%. As to `CCOc1ccc(NC(=O)CN(C)C(=O)c2cc(-c3cccs3)nn2-c2ccccc2)cc1OCC`, the “hERG current change (%, negative = inhibition) at 10uM” value was -37.8%. The same measure for `Cc1occc1-c1nnc(SCC(=O)Nc2ccc3c(c2)OCO3)n1CC1CCCO1` (stereo not shown): -2.13%; for `Cc1[nH]c(C)c(S(=O)(=O)NCc2ccc(N(C)C)cc2)c1C(=O)N1CCCC1`: 10.8%. For the compound `CCN(CC)S(=O)(=O)c1cccc(-c2nnc(SCC(=O)NC)n2N)c1`, the “hERG current change (%, negative = inhibition) at 10uM” value is on record as 8.5%. Turning to `CC(/C=C/c1ccco1)=N\NC(=O)c1cccc(Cl)c1`, the “hERG current change (%, negative = inhibition) at 10uM” value is -8.98%. The same measure for `c1ccc(-c2nccc3ccccc23)cc1`: -14.5%; for `O=C(NCCOc1cccc(Cl)c1Cl)c1cc(-n2cnnc2)ccc1Cl`: -26.5%. Consider `O=C(c1ccc(S(=O)(=O)Nc2ccccc2F)cc1)N1CCN(c2ccccc2O)CC1`, for which the “hERG current change (%, negative = inhibition) at 10uM” value is -8.57%. The same measure for `Cc1ccc(CNC(=O)COC(=O)C2CC2)cc1`: 8.2%.

With `COC(=O)Cc1nnc(SCC(=O)Nc2ccccc2)c2ccccc12`, the “hERG current change (%, negative = inhibition) at 10uM” value is reported as -2.47%. On to `COc1ccc(OCC(=O)NNC(=O)c2cccc(C)c2)cc1`, for which the “hERG current change (%, negative = inhibition) at 10uM” value came out at 4.57%. For `Cc1ccc(/C=N/NC(=O)Cn2nc(C)c(Br)c2C)o1`, the “hERG current change (%, negative = inhibition) at 10uM” value came out at 2.88%. The same measure for `COc1ccc(-c2nnc3ccc(SC)nn23)cc1`: -7.69%; for `O=C(Nc1cccc(C(F)(F)F)c1)c1cccnc1N1CCCC1`: 13.2%; for `O=C(NC1CCCCC1)c1ccccc1-c1ccccc1`: -6.12%. Regarding `Cc1ccc(SCC(=O)OCn2nnc3ccccc3c2=O)cc1C`, the “hERG current change (%, negative = inhibition) at 10uM” value is on record as -0.532%. Next, `CCN(CC)C(=O)C1CC(=O)N(c2ccc(F)c(Cl)c2)C1` (stereo not shown): 2.5%. The same measure for `O=c1c2ccccc2nc(-c2ccc(Cl)cc2Cl)n1-c1nccs1`: -13.8%; for `C[C@@H]1CC[C@H]2C(=O)N3[C@@H](CC[C@@H](C)[C@@H]3c3ccc(Br)cc3)C(=O)N2[C@H]1c1ccc(Br)cc1`: 5.03%. Next, `O=C(O)c1ccnc(C(=O)O)c1`: 9.11%.

Take `COc1cc(CC(=O)Nc2ccc(N3CCOCC3)cc2)cc(OC)c1OC`: the “hERG current change (%, negative = inhibition) at 10uM” value stood at 10.3%. Next, `Cc1ccc(/C=C/C(=O)OC(C)C(=O)Nc2ccc(Cl)cn2)o1` (stereo not shown): -17.7%; `CS(=O)(=O)N1CCC(C(=O)NCc2ccc(F)cc2)CC1`: 15%; `COc1cc(OC)c(OC)cc1CNCCc1ccc2c(c1)OCO2.O=C(O)C(=O)O`: -8.77%.

These data come from paper PMC4336329 (PLoS ONE, 2015).
